The target of assay [1] is T1, SACK1D-GFP (human), Q9H4H8.
T1 chain: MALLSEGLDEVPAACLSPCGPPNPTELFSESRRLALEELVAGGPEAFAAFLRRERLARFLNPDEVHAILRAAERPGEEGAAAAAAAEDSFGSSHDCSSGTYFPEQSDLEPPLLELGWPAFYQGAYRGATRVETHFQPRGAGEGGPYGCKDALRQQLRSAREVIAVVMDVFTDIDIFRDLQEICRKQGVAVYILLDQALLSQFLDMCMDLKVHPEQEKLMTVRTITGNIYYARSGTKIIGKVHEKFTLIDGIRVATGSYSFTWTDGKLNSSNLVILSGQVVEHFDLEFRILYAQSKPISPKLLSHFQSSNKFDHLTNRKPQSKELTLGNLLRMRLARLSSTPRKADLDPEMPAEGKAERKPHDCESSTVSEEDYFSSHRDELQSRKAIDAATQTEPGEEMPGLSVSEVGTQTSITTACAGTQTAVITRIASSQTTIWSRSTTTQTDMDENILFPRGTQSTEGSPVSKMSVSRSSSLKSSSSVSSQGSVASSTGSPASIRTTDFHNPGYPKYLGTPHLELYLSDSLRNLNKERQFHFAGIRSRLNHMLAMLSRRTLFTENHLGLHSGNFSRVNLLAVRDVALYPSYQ
The assay is described as follows: co-IP; GFP nanobody on Sepharose, IP of SACK1D-GFP variants from lysates of SACK1D−/− U2OS cells, asynchronous or mitotic (STLC 5 μM, 16 h); overnight at 4°C; western blot. Conditions: remark: other sources report otherwise. On the technique in general: Immunoblotting shows a protein as a band on a membrane.

Assay [2] has as its target CK1α (human (endogenous in U2OS)), P48729. The assay is described as follows: co-IP; anti-CK1α antibody-coupled Sepharose beads, IP of endogenous CK1α from clarified lysates of mitotic (STLC 5 μM, 16 h) U2OS cells: WT, or HMMR−/− restored with HMMR-GFP or ΔE4-GFP; lysis buffer 50 mM Tris-HCl pH 7.5, 150 mM NaCl, 1 mM EDTA, 1% Triton-X; overnight at 4°C; western blot. Conditions: remark: other sources report otherwise.

The target of another assay is T2, HMMR-GFP (human) (UniProt O75330).
T2 sequence: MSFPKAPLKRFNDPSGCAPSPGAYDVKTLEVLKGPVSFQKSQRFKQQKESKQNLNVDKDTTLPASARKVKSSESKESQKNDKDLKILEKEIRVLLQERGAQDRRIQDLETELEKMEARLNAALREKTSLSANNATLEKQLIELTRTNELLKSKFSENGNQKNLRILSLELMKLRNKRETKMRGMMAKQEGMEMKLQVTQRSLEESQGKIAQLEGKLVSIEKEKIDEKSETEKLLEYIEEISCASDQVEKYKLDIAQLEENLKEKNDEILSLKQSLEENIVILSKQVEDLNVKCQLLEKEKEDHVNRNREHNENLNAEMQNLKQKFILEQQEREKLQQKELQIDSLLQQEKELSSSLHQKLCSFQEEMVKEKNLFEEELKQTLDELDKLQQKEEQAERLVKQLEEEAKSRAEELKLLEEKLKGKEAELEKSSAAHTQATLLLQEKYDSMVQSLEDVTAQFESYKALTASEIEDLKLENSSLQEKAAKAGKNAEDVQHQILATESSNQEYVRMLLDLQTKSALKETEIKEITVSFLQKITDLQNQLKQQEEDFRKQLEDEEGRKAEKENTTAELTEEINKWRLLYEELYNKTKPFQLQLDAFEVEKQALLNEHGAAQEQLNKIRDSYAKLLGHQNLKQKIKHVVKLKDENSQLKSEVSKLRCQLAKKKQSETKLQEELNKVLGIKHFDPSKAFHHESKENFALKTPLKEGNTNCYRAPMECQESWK
The assay is described as follows: co-IP; GFP nanobody on Sepharose, IP of HMMR-GFP variants restored in HMMR−/− U2OS cells, asynchronous or mitotic (STLC 5 μM, 16 h); western blot.

Assay [3] concerns the target CK1α (human (endogenous in U2OS)) (UniProt P48729). As to the kind of experiment: co-IP; as a1, but HMMR−/− U2OS cells (CRISPR knockout, not restored), asynchronous or STLC-arrested.
For assay [4] the target is unchanged. As to the kind of experiment: condition: only asynchronous cells (no mitotic arrest); co-IP; as a1, but asynchronous WT U2OS cells (no STLC arrest).
The target in another assay is T3, SACK1D^1-514-GFP (human) (UniProt Q9H4H8).
T3 sequence: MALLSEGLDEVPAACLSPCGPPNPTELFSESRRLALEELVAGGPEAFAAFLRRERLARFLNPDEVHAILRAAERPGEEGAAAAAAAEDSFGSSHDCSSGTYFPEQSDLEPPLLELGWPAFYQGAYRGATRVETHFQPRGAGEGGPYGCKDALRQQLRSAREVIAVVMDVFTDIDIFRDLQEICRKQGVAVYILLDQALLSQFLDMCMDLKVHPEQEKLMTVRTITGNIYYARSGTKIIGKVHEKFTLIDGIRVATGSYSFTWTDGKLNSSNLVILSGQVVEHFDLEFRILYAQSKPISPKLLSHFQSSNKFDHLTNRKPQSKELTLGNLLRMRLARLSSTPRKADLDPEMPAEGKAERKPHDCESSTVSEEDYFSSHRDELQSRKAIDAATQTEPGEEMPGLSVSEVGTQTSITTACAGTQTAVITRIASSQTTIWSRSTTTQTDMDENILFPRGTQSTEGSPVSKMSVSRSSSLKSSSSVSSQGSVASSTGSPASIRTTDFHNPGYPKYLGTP
The assay is described as follows: co-IP; GFP nanobody on Sepharose, IP of SACK1D-GFP variants from lysates of SACK1D−/− U2OS cells, asynchronous or mitotic (STLC 5 μM, 16 h); overnight at 4°C; western blot.

Assay [5] deals with T4, SACK1D^M545A,L546A,M548A,L549A-GFP (human) (UniProt Q9H4H8).
T4 sequence: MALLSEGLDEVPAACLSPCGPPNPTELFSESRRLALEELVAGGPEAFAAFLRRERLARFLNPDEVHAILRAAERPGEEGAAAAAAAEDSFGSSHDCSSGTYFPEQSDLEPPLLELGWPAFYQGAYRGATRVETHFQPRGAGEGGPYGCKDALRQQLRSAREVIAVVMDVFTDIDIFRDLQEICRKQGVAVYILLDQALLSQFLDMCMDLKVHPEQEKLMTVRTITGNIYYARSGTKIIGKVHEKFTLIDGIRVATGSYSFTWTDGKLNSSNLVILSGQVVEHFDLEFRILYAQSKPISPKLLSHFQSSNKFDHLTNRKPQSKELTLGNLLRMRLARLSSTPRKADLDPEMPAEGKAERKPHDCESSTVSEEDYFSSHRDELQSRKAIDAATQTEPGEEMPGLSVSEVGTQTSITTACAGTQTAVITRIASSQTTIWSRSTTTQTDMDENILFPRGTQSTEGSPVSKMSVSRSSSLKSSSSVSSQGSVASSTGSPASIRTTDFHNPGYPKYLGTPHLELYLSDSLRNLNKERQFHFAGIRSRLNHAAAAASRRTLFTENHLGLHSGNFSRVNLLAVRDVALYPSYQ
Described as above.

Another assay deals with T5, SACK1D-GFP (human) (UniProt Q9H4H8).
T5 sequence: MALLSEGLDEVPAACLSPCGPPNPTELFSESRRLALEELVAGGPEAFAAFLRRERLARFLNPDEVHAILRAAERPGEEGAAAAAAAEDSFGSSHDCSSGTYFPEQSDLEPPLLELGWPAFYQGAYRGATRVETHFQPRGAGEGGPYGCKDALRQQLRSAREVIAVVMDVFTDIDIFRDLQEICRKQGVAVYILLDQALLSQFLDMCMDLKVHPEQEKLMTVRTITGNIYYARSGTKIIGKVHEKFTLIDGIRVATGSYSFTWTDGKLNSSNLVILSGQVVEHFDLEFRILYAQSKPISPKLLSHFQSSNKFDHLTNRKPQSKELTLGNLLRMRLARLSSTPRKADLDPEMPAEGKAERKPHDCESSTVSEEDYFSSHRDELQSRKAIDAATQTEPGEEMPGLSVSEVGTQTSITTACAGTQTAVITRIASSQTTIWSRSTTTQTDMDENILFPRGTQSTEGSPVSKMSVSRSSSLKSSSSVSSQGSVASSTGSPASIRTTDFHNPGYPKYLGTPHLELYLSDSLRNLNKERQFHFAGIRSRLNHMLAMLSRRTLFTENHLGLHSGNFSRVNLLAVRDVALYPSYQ
The assay is described as above.

The source of these data is publication PMC12803952.

No constants are given. Whether binding was seen depends on the method and setting. In cells and extracts the contact can be indirect. Some results given as binding are weak or reduced against the parent protein; the word gives no strength. For some assays here: Sequences can lack the tags named with a protein.

B1: CK1α, P48729 1-337 (enzyme)
chain: MASSSGSKAEFIVGGKYKLVRKIGSGSFGDIYLAINITNGEEVAVKLESQKARHPQLLYESKLYKILQGGVGIPHIRWYGQEKDYNVLVMDLLGPSLEDLFNFCSRRFTMKTVLMLADQMISRIEYVHTKNFIHRDIKPDNFLMGIGRHCNKLFLIDFGLAKKYRDNRTRQHIPYREDKNLTGTARYASINAHLGIEQSRRDDMESLGYVLMYFNRTSLPWQGLKAATKKQKYEKISEKKMSTPVEVLCKGFPAEFAMYLNYCRGLRFEEAPDYMYLRQLFRILFRTLNHQYDYTFDWTMLKQKAAQQAASSSGQGQQAQTPTGKQTDKTKSNMKGF
On to B1, for which the binding entry in assay [1] is “binds”.

B2: Scaffold Anchor of CK1 (SACK1) domain-containing protein D, Q9H4H8 1-585 (protein)
chain: MALLSEGLDEVPAACLSPCGPPNPTELFSESRRLALEELVAGGPEAFAAFLRRERLARFLNPDEVHAILRAAERPGEEGAAAAAAAEDSFGSSHDCSSGTYFPEQSDLEPPLLELGWPAFYQGAYRGATRVETHFQPRGAGEGGPYGCKDALRQQLRSAREVIAVVMDVFTDIDIFRDLQEICRKQGVAVYILLDQALLSQFLDMCMDLKVHPEQEKLMTVRTITGNIYYARSGTKIIGKVHEKFTLIDGIRVATGSYSFTWTDGKLNSSNLVILSGQVVEHFDLEFRILYAQSKPISPKLLSHFQSSNKFDHLTNRKPQSKELTLGNLLRMRLARLSSTPRKADLDPEMPAEGKAERKPHDCESSTVSEEDYFSSHRDELQSRKAIDAATQTEPGEEMPGLSVSEVGTQTSITTACAGTQTAVITRIASSQTTIWSRSTTTQTDMDENILFPRGTQSTEGSPVSKMSVSRSSSLKSSSSVSSQGSVASSTGSPASIRTTDFHNPGYPKYLGTPHLELYLSDSLRNLNKERQFHFAGIRSRLNHMLAMLSRRTLFTENHLGLHSGNFSRVNLLAVRDVALYPSYQ
For B2, the binding entry in assay [2] is listed as “binds”.

B3: Scaffold Anchor of CK1 (SACK1) domain-containing protein D (protein, UniProt Q9H4H8 1-585)
chain: MALLSEGLDEVPAACLSPCGPPNPTELFSESRRLALEELVAGGPEAFAAFLRRERLARFLNPDEVHAILRAAERPGEEGAAAAAAAEDSFGSSHDCSSGTYFPEQSDLEPPLLELGWPAFYQGAYRGATRVETHFQPRGAGEGGPYGCKDALRQQLRSAREVIAVVMDVFTDIDIFRDLQEICRKQGVAVYILLDQALLSQFLDMCMDLKVHPEQEKLMTVRTITGNIYYARSGTKIIGKVHEKFTLIDGIRVATGSYSFTWTDGKLNSSNLVILSGQVVEHFDLEFRILYAQSKPISPKLLSHFQSSNKFDHLTNRKPQSKELTLGNLLRMRLARLSSTPRKADLDPEMPAEGKAERKPHDCESSTVSEEDYFSSHRDELQSRKAIDAATQTEPGEEMPGLSVSEVGTQTSITTACAGTQTAVITRIASSQTTIWSRSTTTQTDMDENILFPRGTQSTEGSPVSKMSVSRSSSLKSSSSVSSQGSVASSTGSPASIRTTDFHNPGYPKYLGTPHLELYLSDSLRNLNKERQFHFAGIRSRLNHMLAMLSRRTLFTENHLGLHSGNFSRVNLLAVRDVALYPSYQ
For B3, the binding result in the assay with HMMR-GFP (human) is recorded as “binds”; in assay [3] it was “no binding (condition: in HMMR−/− U2OS cells)”; in assay [4], “no binding”.

B4: hyaluronan-mediated motility receptor (protein, UniProt O75330 1-724)
chain: MSFPKAPLKRFNDPSGCAPSPGAYDVKTLEVLKGPVSFQKSQRFKQQKESKQNLNVDKDTTLPASARKVKSSESKESQKNDKDLKILEKEIRVLLQERGAQDRRIQDLETELEKMEARLNAALREKTSLSANNATLEKQLIELTRTNELLKSKFSENGNQKNLRILSLELMKLRNKRETKMRGMMAKQEGMEMKLQVTQRSLEESQGKIAQLEGKLVSIEKEKIDEKSETEKLLEYIEEISCASDQVEKYKLDIAQLEENLKEKNDEILSLKQSLEENIVILSKQVEDLNVKCQLLEKEKEDHVNRNREHNENLNAEMQNLKQKFILEQQEREKLQQKELQIDSLLQQEKELSSSLHQKLCSFQEEMVKEKNLFEEELKQTLDELDKLQQKEEQAERLVKQLEEEAKSRAEELKLLEEKLKGKEAELEKSSAAHTQATLLLQEKYDSMVQSLEDVTAQFESYKALTASEIEDLKLENSSLQEKAAKAGKNAEDVQHQILATESSNQEYVRMLLDLQTKSALKETEIKEITVSFLQKITDLQNQLKQQEEDFRKQLEDEEGRKAEKENTTAELTEEINKWRLLYEELYNKTKPFQLQLDAFEVEKQALLNEHGAAQEQLNKIRDSYAKLLGHQNLKQKIKHVVKLKDENSQLKSEVSKLRCQLAKKKQSETKLQEELNKVLGIKHFDPSKAFHHESKENFALKTPLKEGNTNCYRAPMECQESWK
With B4, the binding entry with SACK1D^1-514-GFP (human) is reported as “no binding”; in assay [5], “no binding”; with SACK1D-GFP (human), “binds”.
